Among all 45,000 compounds or so, about 65 (0.1%) were called active. Calls come from the whole dose curve; as a rule, active = well fitted activation curve with a large enough effect; inconclusive = small, poorly fitted or top-dose-only effect; inactive = no such curve, though single readings can be large or run the other way. The list shows a part of the results.
The compounds below were run against Galactocerebrosidase (Homo sapiens) (UniProt P54803) (assay: A Novel Cell-Based Assay to Identify Small Molecules for B -Galactocerebrosidase). Settings: 145M-Twi-hGALC-G270D cells (Twitcher mouse brain line with human GALC G270D), HMU-beta-Gal fluorescence, 48 h; series mostly up to 57.5 µM; activation: at the top concentration.
Chain of UniProt P54803 (P54803 whole entry, looked up): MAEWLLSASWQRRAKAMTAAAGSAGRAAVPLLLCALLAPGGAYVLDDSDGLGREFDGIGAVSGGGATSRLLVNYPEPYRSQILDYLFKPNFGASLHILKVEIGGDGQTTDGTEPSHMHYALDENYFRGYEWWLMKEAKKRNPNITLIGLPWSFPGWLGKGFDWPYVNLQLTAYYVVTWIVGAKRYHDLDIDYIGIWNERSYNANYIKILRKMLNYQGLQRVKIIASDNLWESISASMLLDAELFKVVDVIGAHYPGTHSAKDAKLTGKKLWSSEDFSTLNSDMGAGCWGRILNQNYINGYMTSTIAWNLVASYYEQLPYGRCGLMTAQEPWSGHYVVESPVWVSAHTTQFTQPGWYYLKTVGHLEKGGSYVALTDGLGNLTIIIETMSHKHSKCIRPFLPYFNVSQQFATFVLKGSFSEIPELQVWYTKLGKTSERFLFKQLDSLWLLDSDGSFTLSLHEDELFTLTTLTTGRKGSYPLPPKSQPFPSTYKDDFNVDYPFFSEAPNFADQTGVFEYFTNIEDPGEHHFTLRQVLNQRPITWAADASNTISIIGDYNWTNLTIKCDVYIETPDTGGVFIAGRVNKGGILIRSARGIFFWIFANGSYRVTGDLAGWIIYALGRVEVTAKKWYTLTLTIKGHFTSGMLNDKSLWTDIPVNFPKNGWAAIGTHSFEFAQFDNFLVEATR
Procedure, shortened: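 Brain-derived Twitcher mouse 145M-Twi cells stably expressing human GALC-G270D or wild-type GALC, treated live, then residual GALC activity read by fluorescence of HMU-b-Gal substrate (0.1 mM final) in citrate-phosphate buffer pH 5.2 with sodium taurocholate. Signal increase indicates enhancement.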
Note: 0% is about no effect; nearly all actives have a fitted effect of over 65% in size.

activation, inactive:
O=C1CC(c2nc3ccccc3n2CCC2CCCCC2)CN1c1ccccc1Cl (centres undefined) -12%
CCCCCCc1c(C)c2c(cc(C)c3c(C)c(C)oc32)oc1=O -6.84%
Cc1cccc(N2CCN(C(=O)CCCn3c(=O)[nH]c4ccsc4c3=O)CC2)c1C -7.99%
Cc1ccc(NC(=O)Cn2c(=O)n(CCCC(=O)NCc3ccc4c(c3)OCO4)c(=O)c3ccccc32)cc1 -1.86%
O=C(NC1CCCCC1)c1ccc(CSc2nc3ccncc3n2Cc2ccccc2)cc1 -2.55%
O=C(NCCc1ccccc1)c1ccc(Cn2c(=O)c3cccn3c3cccnc32)cc1 2.15%
COc1ccc(OC)c(CNC(=O)c2ccc(Sc3ccc(Cl)cc3)c(NC(C)=O)c2)c1 -35.9%
CCN(c1ccc(Cl)cc1)S(=O)(=O)c1nnc(NC(=O)c2ccco2)s1 -9.04%
Cc1ccc2onc(CC(=O)N3CCN(c4ccc(Cl)cc4)CC3)c2c1 -15%
O=C(NC(Cc1cc(=O)[nH]c2ccccc12)C(=O)O)c1ccc(Cl)cc1 (centres undefined) -26.2%
CCNS(=O)(=O)c1cc(-c2nnc(Nc3cccc(C(F)(F)F)c3)c3ccccc23)ccc1C -7.47%
COc1ccc(NC(=O)CN2C(=O)CSc3ccc(S(=O)(=O)N(C)C)cc32)cc1OC -16.1%
Cc1cc2c(cc1S(=O)(=O)N(CCO)Cc1ccccc1)OCC(=O)N2 -16%
CCOc1cc(C2C(C(=O)Nc3ccccc3)=C(C)Nc3ncnn32)cc(Br)c1O (centres undefined) -14.2%
Cn1c(=O)oc2cc(S(=O)(=O)N3CCCC(C(=O)N4CCN(c5ccc(Cl)cc5)CC4)C3)ccc21 (centres undefined) -6.46%
CCc1ccc2nc(N3CCN(C(=O)c4ccccc4)CC3)sc2c1 -15.4%
Cc1ccc(C)c(N2CCN(C(=O)C3CCN(S(=O)(=O)c4ccc5[nH]c(=O)oc5c4)CC3)CC2)c1 -14.3%
Cc1ccc(NC(=O)Cn2c(CCC(=O)O)ccc2-c2cccs2)cc1Cl -17.2%
Cc1ccc(C)c(NC(=O)CCS(=O)(=O)c2cccc3nsnc23)c1 -10.3%
CCc1cccc(CC)c1N(COC)C(=O)Cn1c(CC)nc2ccccc21 -11.4%
CCN(CC)S(=O)(=O)c1ccc2c(c1)c(=O)c(C(=O)NCCc1ccc(OC)c(OC)c1)cn2C -12.1%
CCC(=O)N1CCc2cc(Br)cc(S(=O)(=O)NCc3cccc(OC)c3)c21 -12.5%
Cc1nc2ccn(Cc3ccccc3)c(=O)c2cc1C(=O)Nc1ccc(F)cc1Cl -7.79%
COC(=O)CNC(c1ccccc1)c1cc(Br)ccc1NC(=O)c1ccc(Cl)cc1 (centres undefined) -20.1%
CCOC(=O)c1ccccc1NC(=O)c1c(-c2ccccc2)noc1C 1.06%
COc1cccc(CN(C(=O)c2oc3ccc(Br)cc3c2C)C2CCS(=O)(=O)C2)c1 (centres undefined) -7%
Cc1cc2nc(NC(=O)c3ccc(S(=O)(=O)N4CCOCC4)cc3)sc2cc1C 9.81%
COc1ccccc1-c1noc(-c2ccc(NCc3ccccc3)c([N+](=O)[O-])c2)n1 -1.68%
CCN(CC)C(=O)CSc1nc(-c2ccccc2)cc(-c2ccc(OC)cc2)c1C#N -9.55%
Cc1ccc(C)c(NC(=O)CCc2nc3cccnc3n2Cc2cccs2)c1 -7.35%
Cc1ccc(-c2cc(N)n(Cc3cccc(Cl)c3)n2)cc1 -11.7%
Cc1ccccc1-c1ccnc2c(-c3ccc(F)cc3)c(C)nn12 1.59%
COc1cccc(NC(=O)Cn2c(=O)n(-c3ccccc3)c(=O)c3c4c(sc32)CCCC4)c1 -1.73%
COc1ccc(N2Cc3cccc(C(=O)Nc4ccc(C)cc4)c3C2=O)cc1 -7.88%
CCOC(=O)c1sc2ccccc2c1S(=O)(=O)N1CCN(c2ccccc2F)CC1 -9.72%
COc1ccc(C)cc1NC(=O)CN1C(=O)CSc2ccc(S(=O)(=O)N3CCCC3)cc21 -5.89%
CC1=C(c2cccc(Cl)c2)S(=O)(=O)NC1=NCc1ccccc1C -7.04%
CCC(=O)N1CCc2cc(S(=O)(=O)N3CCN(c4ccccc4F)CC3)ccc21 -16.1%
COc1cc(OC)c(NC(=O)Cn2nc(C)n3cccc3c2=O)cc1Cl -10.2%
CCOc1ccc(NC(=O)Nc2cccc(C)n2)cc1 -13.9%
Cc1ccc(-n2nc3c(N4CCC(C(=O)NCCc5ccccc5)CC4)nnc(C)c3c2C)cc1 -1.86%
COCCCN1CN=C(NS(=O)(=O)c2ccc(NC(C)=O)cc2)NC1 -3.16%
COc1ccc(C)cc1NC(=O)CN(C)S(=O)(=O)c1ccc2c(c1)CCCN2C(C)=O -11.4%
Cc1ccccc1Cn1cnc2c(oc3ccccc32)c1=O 6.4%
CCC(=O)N1CCc2cc(CNC(=O)Cc3ccc(OC)c(OC)c3)ccc21 -14.1%
CC1=Nc2cc(C(=O)NC3CCC(C)CC3)ccc2Sc2c(C)ccc(C)c21 (centres undefined) -8.07%
COc1cc(C(=O)N2CCc3c([nH]c4ccccc34)C2c2ccc(F)cc2)cc(OC)c1OC (centres undefined) -4.85%
COC(=O)c1ccc(Nc2nc(-c3ccc(C)cc3)nc3ccccc23)cc1 -12.6%
COc1ccc(-c2cn3nc(N4CCC(C(=O)NCc5cccc(Cl)c5)CC4)sc3n2)cc1 -0.0882%
COc1cc(-c2noc(-c3ccc(N4CCCC4)c([N+](=O)[O-])c3)n2)cc(OC)c1OC -4.02%
CC(=O)N1CCc2c(sc3c2c(=O)n(Cc2ccccc2)c(=O)n3Cc2cccc(Cl)c2)C1 -16.8%
Cc1ccc(-n2nc(C(=O)NCc3ccc(F)cc3Cl)c3c4ccccc4n(C)c3c2=O)cc1 -5.88%
FC(F)(F)c1ccc2c(c1)ncc1c(-c3ccccc3)nn(-c3ccccc3)c12 0.531%
COc1ccc(NC(=O)c2ccc3c(c2)N(Cc2cccc(Cl)c2)C(=O)c2ccccc2S3(=O)=O)cc1Cl -1.33%
CCN(CC)C(=O)Cn1ncc2c([nH]c3ccc(C)cc32)c1=O 4.59%
CCOc1ccccc1CNC(=O)C1CCN(C(=O)N2CCOc3ccc(Cl)cc32)CC1 -8.33%
O=C1c2c(O)ccc(O)c2C(=O)c2c(NCCNCCO)ccc(NCCNCCO)c21 -11.1%
COc1ccc(OC)c(NC(=O)c2oc3c(c2C)-c2nn(Cc4ccc(Cl)cc4)cc2CC3)c1 -8.06%
CC(C)Oc1ccc(CNC(=O)c2ccc(CS(=O)Cc3ccccc3Cl)o2)cc1 (centres undefined) -6.02%
Cc1cn2c(=O)cc(COC(=O)c3cccc(NC(=O)COc4ccccc4)c3)nc2s1 -0.728%
CCOC(=O)c1c(NC(=O)CSc2cn(CCNC(=O)c3ccc(OC)c(OC)c3)c3ccccc23)sc2c1CCC2 -14.7%
Cc1cccc(N2CCN(c3nc4ccc(C(=O)c5ccccc5)cc4n4cnnc34)CC2C)c1 (centres undefined) -16.3%
Cc1cc(C)n2nc(-c3ccc(Cl)cc3)nc2n1 -15.6%
CC(=O)Nc1ccc(NC(=O)Cn2cc3c(n2)CCCCC3)cc1 -16.8%
Cc1ccc2c(CC(=O)N3CCN(c4cccc(Cl)c4)CC3)coc2c1C -20.2%
Cc1cccc(OCCSc2nc3ccc(NC(=O)COc4ccccc4C)cc3s2)c1 -6.58%
Cc1ccccc1Cn1nnc2c(=O)[nH]c(C3CCCN(C(=O)c4ccc(F)cc4)C3)nc21 (centres undefined) -13.5%
COc1ccc(NC(=O)CC2C(=O)N(c3ccc(C)cc3)C(=O)N2Cc2ccc3c(c2)OCO3)cc1 (centres undefined) -15.3%
CCOC(=O)c1ccc(NC(=O)CSc2nnc(CNC(=O)c3ccc(OC)cc3)n2CC)cc1 -8.34%
CCOC(=O)C1=C(C)NC(C)=C(C(=O)OC)C1c1cccc(Cl)c1Cl (centres undefined) -8.71%
COc1ccc(Nc2nc3cc(Cl)c(Cl)cc3n3cnnc23)cc1Cl -13.9%
Cn1c(=O)oc2cc(S(=O)(=O)N3CCC(C(=O)NCc4ccc(F)cc4)CC3)ccc21 -17.1%
O=C(Nc1nnc(S(=O)(=O)N2CCCC2)s1)c1ccccc1Br 7.73%
Cc1ccc2c(c1)N(C(=O)CCC(=O)NCc1cccs1)CCO2 -22.5%
COc1cc(N2C(=O)CSC23C(=O)N(Cc2ccc(C)cc2)c2ccccc23)cc(OC)c1OC (centres undefined) -17%
Cc1ccc(C)c(CN2C(=O)c3ccccc3S(=O)c3ccc(C(=O)N4CCN(c5ccccc5F)CC4)cc32)c1 (centres undefined) 0.784%
COc1cc2c(cc1OC)C(COc1ccc(C(C)C)cc1)N(C(=O)c1ccc(S(=O)(=O)N3CCCC3)cc1)CC2 (centres undefined) -19.7%
CC1CCN(CCCNC(=O)c2cn(C)c3ccc(S(=O)(=O)N(C)C4CCCCC4)cc3c2=O)CC1 -16.8%
COc1ccc(N2CCN(S(=O)(=O)c3ccc4c(c3)CCCN4C(C)=O)CC2)cc1 -12%
CCC(C)n1c(SCc2c(F)cccc2Cl)nc2ccsc2c1=O (centres undefined) -28.9%
COc1cc(C2CC(=O)N(Cc3ccc(F)cc3)c3ccccc3S2)cc(OC)c1OC (centres undefined) -1.53%
COc1cc2c(cc1OC)C(COc1ccc(F)cc1)N(C(=O)c1ccc(S(=O)(=O)N3CCCC3)cc1)CC2 (centres undefined) 2.39%
CCc1ccc(-c2nc3cc(NC(=O)c4cc5ccccc5cc4OC)ccc3o2)cc1 -7.24%
COC(=O)c1cc(NC(=O)[C@H](CCS(C)(=O)=O)N2Cc3ccccc3C2=O)cc(C(=O)OC)c1 9.17%
CCc1cc(C(=O)NC(C)c2ccccc2)no1 (centres undefined) -10.3%
COc1ccc(Br)c(C(=O)Nc2cc3c(cc2N2CCCCC2)n(C)c(=O)c(=O)n3C)c1 -10.7%
CCOc1ccc(-c2cc(-c3nc(-c4cc(OC)c(OC)c(OC)c4)no3)[nH]n2)cc1Cl -19%
CC(=O)Nc1ccc(NC(=O)c2ccc(COc3ccc(Cl)cc3Cl)o2)cc1 -7.45%
Cc1cccc(NC(=O)c2c(C)cc(C)nc2SCC(=O)Nc2c(C)cc(C)cc2C)c1 -11.5%
Cc1ccc(-n2nc(CO)c(C(=O)NCc3cccs3)n2)cc1C -10.6%
COC(=O)c1ccccc1NC(=O)c1ccc2nc(Cc3ccccc3)oc2c1 -14.6%
O=C(CCCn1c(=O)c2ccccc2n(Cc2ccc(F)cc2Cl)c1=O)NCCc1ccc(Cl)cc1 -6.87%
COC(=O)c1ccccc1NC(=O)c1nc(S(=O)(=O)Cc2cccc(C)c2)ncc1Cl -16.4%
CC(=O)c1cccc(NC(=O)CSc2nc(=O)n(Cc3cccnc3)c3c2CCC3)c1 -10.7%

From PubChem BioAssay AID1159614 (National Center for Advancing Translational Sciences (NCATS), 2016)
